From PubChem BioAssay AID686979 (National Center for Advancing Translational Sciences (NCATS), 2013)
In all, about 420,000 compounds went through this assay and about 50,000 (12%) were called active. Inconclusive results, whose numbers are uncertain, are shown with a selection of clear calls. Calls come from the whole dose curve; as a rule, active = well fitted inhibition curve with a large enough effect; inconclusive = small, poorly fitted or top-dose-only effect; inactive = flat fitted curve, though single readings scatter. No potency is given beside an inconclusive call; the fits are too rough.

Assay: qHTS for Inhibitors of human tyrosyl-DNA phosphodiesterase 1 (TDP1): qHTS in cells in presence of CPT; note: nearly all actives have a fitted effect of over 55% in size
Details: chicken DT40 Tdp1-/-;hTDP1 cells + 20 nM CPT, ATP luminescence, 48 h; activity change, negative = growth inhibition: at 46.2 µM (top of the series) unless noted
Outline: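 Chicken DT40 Tdp1-/- cells complemented with human TDP1, 400 cells/well, exposed to compounds plus 20 nM camptothecin for at least 48 h at 37 C; viability read as ATP content by CellTiter-Glo luminescence.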
% is set by controls: 0 for no effect and ±100 for the full control effect; potency is the fitted concentration of half-maximal effect; tags give direction and shape of the fitted curve.

| SMILES | Potency | activity change, negative = growth inhibition |
| --- | --- | --- |
| CC(C)CCNC(=O)C1CC(c2ccccc2C(F)(F)F)=NO1 (centres undefined) | inactive | – |
| Cc1c(C(=O)OC(C)C(C)C[N+](C)(C)C)oc2ccccc12 (centres undefined) | inconclusive [inhibitor, partial curve] | – |
| O=C(c1cccs1)N1CCC(c2nc(-c3ccc(S(=O)(=O)N4CCOCC4)cc3)no2)CC1 | inconclusive [inhibitor, partial curve] | – |
| Cc1ccc(C)c(NC(=O)CN(C)C(=O)c2ccc3[nH]c4c(c3c2)CC(C)CC4)c1 (centres undefined) | inconclusive [inhibitor, full curve, poor fit] | – |
| COc1cccc(-c2csc(N3CCN(C(=O)NC45CC6CC(CC(C6)C4)C5)CC3)n2)c1 | inconclusive [inhibitor, single point] | – |
| O=C(Cn1cc(S(=O)(=O)Cc2cccc(Cl)c2)c2ccccc21)NCc1ccccc1Cl | inconclusive [inhibitor, single point] | – |
| CC1=C(C(=O)Nc2ccc(C(=O)N3CCN(c4cccc(Cl)c4)CC3)cc2)SCCO1 | inconclusive [inhibitor, single point] | – |
| Cc1nsc2nc3c(F)c(F)c(F)c(F)c3cc12 | inconclusive [inhibitor, single point] | – |
| O=C(COc1ccc(CNC[C@H]2O[C@@H](n3ccc(=O)[nH]c3=O)[C@H](O)[C@@H]2O)cc1)Nc1nccs1 | inactive | – |
| COc1cc(OC)c(NC(=O)c2csc(C)c2)cc1Cl | inconclusive [inhibitor, single point] | – |
| CN(C)CCN1CCN(C2CN(Cc3ccc(F)cc3)S(=O)(=O)C2)CC1 (centres undefined) | inactive | – |
| COc1ccc(C2OC(CCc3ccccc3)Cc3[nH]c(=S)[nH]c(=O)c32)cc1 (centres undefined) | inconclusive [inhibitor, single point] | – |
| COc1ccc(/C(C)=N/OCC(=O)N2CC3(C)CC2CC(C)(C)C3)cc1 (centres undefined) | inconclusive [inhibitor, single point] | – |
| O=c1[nH]c2ccccc2n1Cc1ccc(F)cc1 | inconclusive [inhibitor, single point] | – |
| COc1ccc(CCC(=O)NNC(=O)Cn2nc(C)cc2C)cc1 | inactive | – |
| COc1ccc(-c2nsc(NC(=O)c3oc4ccccc4c3C)n2)cc1 | inconclusive [inhibitor, single point] | – |
| CCn1cc(C(=O)N2CCN(c3cccc(C)c3)C(C)C2)c(=O)c2cc(S(=O)(=O)N3CCOCC3)ccc21 (centres undefined) | inactive | – |
| COc1cccc(C(=O)CSc2nnc(-c3cc(OC)c(OC)c(OC)c3)o2)c1 | inconclusive [inhibitor, single point] | – |
| COC(=O)c1ccc(CN2CCCC(C(=O)c3cc(F)ccc3OC)C2)cc1 (centres undefined) | – | inconclusive: -37% [inhibitor] |
| CCn1c(N)c(C(=O)NCC2CCCO2)sc1=S (centres undefined) | inconclusive [inhibitor, single point] | – |
| CCC(C)Sc1ccc([C@@H]2[C@H]3C(=O)N(CC)C(=O)[C@H]3[C@]3(C(=O)OC)CCCCN23)cc1 (some centres undefined) | inconclusive [inhibitor, single point] | – |
| CCOC(=O)/C(=C/C=C1\Sc2ccccc2N1CC)C(C)=O | active: 20.6 µM | – |
| COc1ccc(Nc2nc(C(=O)NCCCN3CCOCC3)cs2)cc1 | inactive | – |

| SMILES | Potency | activity change, negative = growth inhibition |
| --- | --- | --- |
| CCOc1ccc(S(=O)(=O)N2CCCCC2)cc1NC(=O)CC1OC(=O)c2ccccc21 (centres undefined) | inactive | – |
| CC(C1CC1)N(Cc1ccccc1)C(=S)Nc1ccccc1 (centres undefined) | active: 14.6 µM | – |
| COc1ccc2cc3cc(C(=O)NCCN4CCN(c5ccccc5F)CC4)oc3nc2c1 | inconclusive [inhibitor, single point] | – |
| Cc1ccc(-c2nn(-c3ccccc3)cc2C(=O)N2CCN(c3ccccn3)CC2)cc1 | inconclusive [inhibitor, single point] | – |
| COc1ccc(NC(=O)Nc2cc(F)ccc2C)cc1 | inconclusive [inhibitor, single point] | – |
| COc1ccc2nc(NC(=O)CN(C)S(=O)(=O)c3cccs3)sc2c1 | inconclusive [inhibitor, partial curve, poor fit] | – |
| COCCn1c(C)cc(O)c(C(c2ccccc2Cl)N2CCCCC2)c1=O (centres undefined) | inactive | – |
| CCCC(=O)O | inactive | – |
| CCCN1CCN(CCCNC(=O)c2cc3c(s2)-c2ccccc2OC3)CC1 | inconclusive [inhibitor, single point] | – |
| C[C@]12CC[C@@H]3c4ccc(O)cc4CC[C@H]3[C@@H]1CC[C@@H]2OC(=O)CCC1CCCC1 | inactive | – |
| O=C(CN(Cc1ccc(Cl)c(Cl)c1)S(=O)(=O)c1ccccc1)N/N=C\c1ccc2c(c1)OCO2 | inconclusive [inhibitor, single point] | – |
| O=C(Cc1coc2ccc3ccccc3c12)N1CCN(c2ncccn2)CC1 | inconclusive [inhibitor, single point] | – |
| CN(C)c1ccc(CNC(=O)CCCN2C(=O)CCn3nc(-c4cn(C)c5ccccc45)cc32)cc1 | inconclusive [inhibitor, partial curve] | – |
| CCOCCCNC(=S)N1CCC(C(=O)c2ccc3c(c2)OCCO3)CC1 | – | inconclusive: -34.2% [inhibitor] |
| O=C(Nc1ccc(-c2nc3ncccc3o2)cc1)c1ccc(Br)o1 | – | inconclusive: -33.5% [inhibitor] |
| CC(C)(C)NC(=O)c1cccc(NC(=O)c2cccc(O)c2)c1 | inactive | – |
| O=C(Cn1ccc2cc(S(=O)(=O)N3CCCCCC3)ccc21)NCc1cccc(Cl)c1 | inconclusive [inhibitor, single point] | – |
| Cc1coc2c(C)c3oc(=O)c(CCC(=O)N4CCCCC4)c(C)c3cc12 | active: 13 µM | – |
| Nc1nc(-c2cccnc2)nn1S(=O)(=O)c1ccccc1 | inactive | – |
| COCCNC(=S)N(Cc1cccs1)Cc1cc2cccc(C)c2[nH]c1=O | inactive | – |
| Cc1nc2c(c(C)c1CCC(=O)Nc1ccc(F)cc1)c(=O)n(C)c(=O)n2C | inconclusive [inhibitor, full curve] | – |
| COc1cccc(OCc2cc(/C=N/NC(=O)c3nc(Cl)c(Cl)c(N)c3Cl)ccc2OC)c1 | inconclusive [inhibitor, single point] | – |
| CCCC(C(=O)NC1CCCC1)N(Cc1ccccc1Cl)C(=O)c1snc(C(N)=O)c1N (centres undefined) | inactive | – |

| SMILES | Potency | activity change, negative = growth inhibition |
| --- | --- | --- |
| CCCCNC(=O)C[C@@H]1C[C@@]2(C(=O)OCC)CCC=C2N(Cc2ccc3c(c2)OCO3)C1=O | inconclusive [inhibitor, single point] | – |
| COc1ccc(CCC(=O)N2CCCC(Nc3ccc(C)c(C)c3)C2)cc1OC (centres undefined) | inconclusive [inhibitor, single point] | – |
| CCCCCc1cc(O)c2c(C)cc(=O)oc2c1 | active: 23.1 µM | – |
| Cc1cccc(NS(=O)(=O)c2cc3c4c(c2)C(C)C(=O)N4CCC3)c1 (centres undefined) | inconclusive [inhibitor, partial curve] | – |
| OC(c1cccnc1)c1nc(-c2cccc(F)c2)cs1 (centres undefined) | inconclusive [inhibitor, single point] | – |
| C=CCNc1sc(C(=O)c2ccccc2)c(N)c1-c1nc2ccccc2s1 | inconclusive [inhibitor, single point] | – |
| CCOc1ccc(S(=O)(=O)NCCC2=CCCCC2)c2ccccc12 | inconclusive [inhibitor, single point] | – |
| O=C1NNC(c2ccccc2)=N/C1=C\c1ccccc1 | inactive | – |
| CCCC(=O)Nc1nc2ccc(C(=O)OCC)cc2s1 | inconclusive [inhibitor, partial curve] | – |
| Cc1cccc(C)c1NC(=O)C1CCCN1S(=O)(=O)c1cccc2nsnc12 (centres undefined) | inactive | – |
| Cc1ccc(Cn2cc(CCC(=O)NCC(C)c3ccccc3)c3ccccc32)cc1 (centres undefined) | inconclusive [inhibitor, single point] | – |
| CCOC(=O)c1c(C)n(C)c2ccc(OCC(O)Cn3nc(C)c(Br)c3C)cc12 (centres undefined) | active: 20.6 µM | – |
| O=C(COC(=O)CC1CC2CCC1C2)Nc1ccccc1[N+](=O)[O-] (centres undefined) | inactive | – |
| Cc1ccccc1NC(=O)CN1C(=O)S/C(=C\c2ccc(-c3cccc(C(=O)O)c3C)o2)C1=O | inactive | – |
| O=C(c1cccc(Cl)c1)N1CCC(=O)N(C(COCc2cccc(Cl)c2)Cc2ccccc2)CC1 (centres undefined) | inconclusive [inhibitor, single point] | – |
| CN(C)CCCN(C(=O)CCc1ccccc1)c1nc2ccc(Br)cc2s1 | inconclusive [inhibitor, partial curve, poor fit] | – |
| Clc1cccc(-c2sc(Nc3ccccc3)n[n+]2-c2ccccc2)c1Cl | inconclusive [inhibitor, single point] | – |
| O=C(NCc1ccccc1)[C@@H]1CCCN1C(=O)[C@@H]1CCCN1C(=O)c1cccc2ccccc12 | inconclusive [inhibitor, single point] | – |
| COc1ccc(Cl)cc1NC(=S)NCc1ccccn1 | inconclusive [inhibitor, single point] | – |
| COCCn1c(C)cc(O)c(C(c2ccccc2F)N2CCN(c3ccccc3)CC2)c1=O (centres undefined) | inactive | – |
| COc1ccccc1CCNC(=O)C(=O)NCC(c1cccnc1)N1CCN(c2ccccc2)CC1 (centres undefined) | active: 11.6 µM | – |
| Cc1cc(=O)n(C)c(=O)n1CCCCCOc1cccc([N+](=O)[O-])c1 | inconclusive [inhibitor, partial curve, poor fit] | – |
| Cc1cc(NC(=O)c2c(F)cccc2F)n(-c2nc3ccccc3[nH]2)n1 | inconclusive [inhibitor, single point] | – |
